Experimental data published in the supplement of paper PMC3724861.
The list shows a part of the results.

Each sequence was assayed on T1, Caupolican (Caup) homeodomain DNA-binding domain (assay: PBM E-score (8-mer, recovered from the published 9-mer minima) (E-score (dimensionless, -0.5 to 0.5)); Drosophila protein; higher = stronger relative binding preference, active = 0.31 or more).
T1 sequence: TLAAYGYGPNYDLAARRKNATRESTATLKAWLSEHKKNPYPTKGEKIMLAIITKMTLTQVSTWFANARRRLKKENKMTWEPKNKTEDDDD
How it was run: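 An enrichment score, with higher meaning stronger, expresses relative binding preference for each short DNA word. The protein used was Caup's homeodomain DNA-binding domain (residues 214-303), produced by in vitro transcription and translation and tested at 100 nM on custom-designed protein binding microarrays. The 8-mer values were recovered from published 9-mer scores, each equal to the lower of its two constituent 8-mer scores.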

Sequence	PBM E-score
ATAGCATG	inactive: 0.116
AGACACAC	inactive: 0.139
CCGGCGGC	inactive: -0.308
CACGACAC	inactive: 0.165
CCACAAGA	inactive: -0.0272
ATCTAGCG	inactive: 0.00377
CCTTTGGC	inactive: -0.121
CGAATTTC	inactive: 0.0286
CACTAGAA	inactive: -0.0801
CACCTCCG	inactive: -0.0883
CGGGATAA	inactive: 0.0809
AGTTCAGG	inactive: 0.00941
AGTGGACA	inactive: 0.161
CACAAACG	inactive: 0.0867
CCGTGGAC	inactive: -0.165
CGGATTAA	inactive: 0.0202
CGCGTATA	inactive: -0.0122
AGGGGCAC	inactive: -0.133
GTCCGAAC	inactive: -0.0421
CTCTATGC	inactive: -0.076
GTTACCGA	inactive: 0.0117
GCTAGCCA	inactive: -0.207
CACGACTA	inactive: 0.0952
TAGAACAA	inactive: 0.226

Sequence	PBM E-score
CACGGGCC	inactive: -0.237
CGAGGAGC	inactive: -0.158
GCAACTAC	inactive: 0.0804
TCCAGCGA	inactive: -0.0857
AACAACTA	active: ≥ 0.319
CGCCCGCG	inactive: -0.302
CGGGTACA	inactive: 0.19
ACTCCTAT	inactive: 0.0533
CACCGTAG	inactive: -0.0233
CCTTTCGC	inactive: -0.167
CGTTGGTC	inactive: -0.0452
ATACGCTC	≥ 0.0431
AGTGCGGC	inactive: -0.171
AATTTTAG	inactive: -3e-05
CCATCGCA	inactive: -0.0771
GGCCTATA	inactive: -0.138
CTACTCTC	inactive: -0.105
AGAAATTG	inactive: 0.0427
CCATCTCA	inactive: -0.0304
CAAGTCGC	inactive: -0.0579
ACGAGCAC	inactive: 0.0699
ACCTTCAA	inactive: 0.0209
AAGCCTTC	inactive: -0.0638
CTGGACTC	inactive: -0.124

Sequence	PBM E-score
ACGTCAGA	≥ 0.0498
CGGTGAAG	inactive: -0.203
GTATCATA	inactive: 0.212
CAGATCAA	inactive: -0.0195
CCATCAAA	inactive: -0.0357
ATAGCCCC	inactive: -0.231
GCCAAGCA	inactive: -0.0756
GATACGGC	inactive: -0.174
TAATCTAA	inactive: 0.116
CCAGAAGC	inactive: -0.184
AAATAACA	inactive: 0.276
GCACACGC	inactive: -0.0248
CTAATACA	inactive: 0.258
AAGACCCA	inactive: -0.186
CCTTCCCA	inactive: -0.182
CGAGATTA	inactive: 0.0275
AAGAAGCC	inactive: -0.109
TCGTGGAA	≥ 0.04
AGACTCTC	inactive: -0.0666
CCATTAAC	inactive: 0.182
GAGTAATA	inactive: 0.167
ACATTACT	inactive: 0.227
ATAACTGA	inactive: 0.0981
TGGCACAA	inactive: 0.0426

Sequence	PBM E-score
GTTGAAAC	inactive: 0.00946
GGGCGGAC	inactive: -0.278
TACCTAAA	inactive: 0.052
CTGTGCGC	inactive: -0.117
ATAGTAGG	inactive: -0.0326
AGGTTCAA	≥ 0.0663
ATATGTGA	inactive: 0.25
CCCTCTCC	inactive: -0.238
CCGACAAG	inactive: 0.206
CCAGTGGA	inactive: -0.117
CGTTTTGA	inactive: 0.0518
AGTTGAAA	inactive: 0.0459
CATCTGCG	inactive: -0.00421
CCAAGAGA	inactive: -0.016
CTCCGGGA	inactive: -0.206
AGATGCGA	inactive: 0.0201
TCTACAGA	inactive: 0.0692
ATGAGCGA	inactive: -0.0133
AGCAAACG	inactive: -0.0682
GTTTAGCA	inactive: -0.0443
ATTTAACC	inactive: 0.049
GGTTCGGA	inactive: -0.117
CACGTTGA	inactive: 0.0907
GACCCGGC	inactive: -0.195

Sequence	PBM E-score
GCGGCACA	inactive: -0.156
AAGCGAGA	inactive: -0.166
ACCTCGGA	inactive: -0.0144
AACTCAAC	inactive: 0.0413
GCCAGGCC	inactive: -0.252
GTCATCAA	inactive: 0.116
AATAGCAC	inactive: -0.00978
GCGTAGTA	inactive: 0.0285
CAAATGAC	inactive: 0.0833
CTGGCACA	inactive: -0.0676
ATTTTCGC	inactive: -0.00282
ACCTAAGG	inactive: -0.135
ATGGGATG	inactive: -0.0623
AGTCCCGA	inactive: -0.126
CTCGCTGC	inactive: -0.13
CTAGCCGA	inactive: -0.112
GCGCCTCC	inactive: -0.203
TAACTCCA	inactive: -0.0511
CTTATGGC	inactive: -0.172
GTCCAACA	inactive: 0.147
AAGACCGT	inactive: -0.0429
ACGCTGAA	inactive: -0.0845
GGGCTTTA	inactive: -0.186
CACTTGTC	inactive: 0.271

Sequence	PBM E-score
ACGTCCGG	inactive: -0.174
AGCATCAA	inactive: 0.0544
AACGTCAT	inactive: 0.0145
AGTTAGGC	inactive: -0.031
ATTTGCAA	inactive: 0.0161
AGTTCGGA	inactive: -0.0352
TGTCTTAA	inactive: 0.168
ATCACTAC	inactive: 0.0733
AACACCGC	inactive: 0.099
AAAATCAA	inactive: 0.0838
CCACCTGA	inactive: -0.142
ACGGCCTG	inactive: -0.128
GGAACGCC	inactive: -0.146
CAGCGATC	inactive: -0.0487
TGATAACA	active: 0.322
GCAGCTCA	inactive: -0.171
GCAATCTA	≥ 0.0996
ACTGCGTG	inactive: -0.0552
TAAAGAGA	inactive: 0.00345
CAGGCGGA	inactive: -0.0895
GTCACTCA	inactive: 0.0346
AATGTAGC	inactive: 0.0881
